# Test results taken from publication PMC6212790.
# The list shows a part of the results. At the low end of the ranking the order means little.
# Target: T1, GST-Rok-C97-191 (UniProt O34857)
# T1 sequence: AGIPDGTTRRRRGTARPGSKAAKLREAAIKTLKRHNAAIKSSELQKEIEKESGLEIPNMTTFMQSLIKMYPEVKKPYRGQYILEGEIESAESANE
# Assay: protein binding microarray;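 further: rank score from −0.5 (least bound) to 0.5 (best bound)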
# Conditions: Rok is a gene silencer of Bacillus subtilis; high values mean tight binding; most listed sequences are background and not binding sites; double strand, one strand shown
row,Sequence,binding signal
1,GCACCGGA,-0.0184 E-score
2,CACCGACC,-0.145 E-score
3,ACTTTCGA,0.00677 E-score
4,TCCGTTAA,-0.0144 E-score
5,GTTAATGA,0.082 E-score
6,TAACCTGA,-0.0138 E-score
7,CGGCATTC,-0.317 E-score
8,CAGCAGGG,-0.187 E-score
9,AAAGCGAT,0.0225 E-score
10,CGACAATC,-0.0224 E-score
11,TGCGTCCA,-0.0414 E-score
12,CTAATGAC,-0.0991 E-score
13,AAAGCGCT,-0.0448 E-score
14,AAATTTTC,0.182 E-score
15,AGATTAAT,0.265 E-score
16,TCAATCAA,-0.14 E-score
17,ATCTGTGC,0.11 E-score
18,ACTATCCG,-0.0363 E-score
19,CAGCCAAA,-0.0566 E-score
20,GGGGCATA,-0.0817 E-score
21,CTCTTAAC,0.00417 E-score
22,CTGAGATC,-0.0302 E-score

row,Sequence,binding signal
1,AGCATAAT,0.369 E-score
2,CAGGTAGG,-0.092 E-score
3,GCTGCTCA,-0.231 E-score
4,ATTGCGTA,0.259 E-score
5,GAAAGTTA,0.121 E-score
6,GAACAGGC,-0.193 E-score
7,AGGCATGG,-0.0956 E-score
8,TGCCAAAA,0.0238 E-score
9,GCTATGGA,0.0973 E-score
10,AACTCGAA,0.0378 E-score
11,ATGGTATC,0.0289 E-score
12,CTAAATAC,0.287 E-score
13,GCAAGACC,-0.24 E-score
14,GACTAATC,0.132 E-score
15,CGCACGGA,-0.149 E-score
16,CAGCGACG,-0.179 E-score
17,ATTTTCAA,-0.13 E-score
18,AACGTCCC,-0.298 E-score
19,CTGTATAA,0.215 E-score
20,CGGCCCTA,-0.267 E-score
21,ATCCCTAA,-0.0982 E-score
22,CCATGCGC,-0.253 E-score

row,Sequence,binding signal
1,ATCGCGCA,-0.0522 E-score
2,ACACGTGC,-0.137 E-score
3,TAGAGCGA,-0.00858 E-score
4,CAAAATCC,-0.082 E-score
5,AGGACAAT,-0.0191 E-score
6,CGCTGCCA,-0.279 E-score
7,ATCGGTCG,-0.132 E-score
8,AAATGATC,0.0378 E-score
9,CGCAGGCA,-0.209 E-score
10,CAGAAAGC,-0.0117 E-score
11,GGACGTGA,-0.172 E-score
12,ATACAGTA,0.385 E-score
13,TGAATACA,0.0229 E-score
14,AGGGCTTG,-0.318 E-score
15,TTCCCAAA,-0.219 E-score
16,AATGCCAT,0.107 E-score
17,CAAGCACA,-0.0429 E-score
18,CGGTTCTA,0.05 E-score
19,GGAACTAA,0.114 E-score
20,GCACCCCC,-0.342 E-score
21,GAACCGTC,-0.215 E-score
22,CCCGCGTA,-0.12 E-score

row,Sequence,binding signal
1,ACCTTCTG,-0.00111 E-score
2,AAGTAAGA,-0.0414 E-score
3,CGCCGACC,-0.381 E-score
4,AATTAAGG,0.0283 E-score
5,CATGGACC,-0.207 E-score
6,AACGCGGC,-0.244 E-score
7,ATCATAGA,0.155 E-score
8,AGTTCATC,0.0552 E-score
9,GGAGCTAA,0.0242 E-score
10,GTGTGAGA,0.027 E-score
11,GATAGCAA,0.137 E-score
12,ACCGTCTC,-0.115 E-score
13,GCTGACGA,-0.179 E-score
14,CTACCTGA,0.0723 E-score
15,GGATCTGA,-0.158 E-score
16,GGTGCCCA,-0.252 E-score
17,ATGCCTCA,-0.00521 E-score
18,AAACAACC,-0.111 E-score
19,ATGCTGCC,-0.192 E-score
20,GGTTCACA,0.00148 E-score
